Values marked as one replicate rest on one cluster of the flow cell; about a third of the high ones do not repeat.
Tested on: ATP
Experiment: switch fluorescence ratio, 500 uM ATP over buffer (Cy3 cluster intensity, sum of 5 cycles each) (fold (ratio)); higher = stronger signal-on switching upon ATP binding; sequences stand for … in TCGTCGGCAGCGTCAGATGTGTATAAGAGACAGTTTTTTTTTTTTTTTTTTTTTTTTT…TC
Conditions: aptamer strand: ATP DNA aptamer (quencher-CACCTGGGGGAGTATTGCGGAGGAAGG + anchor), 100 nM annealed; ATP concentration: 500 uM; one replicate
Procedure, shortened: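 Switching-strand clusters labelled with Cy3 on a modified Illumina MiSeq flow-cell were annealed to 100 nM quencher-labelled ATP aptamer, imaged in selection buffer, and re-imaged after 15 min with 500 uM ATP at 22 °C. This was done over five cycles with NaOH stripping and re-annealing in between. The fluorescence ratio is summed target-cycle over summed buffer-cycle Cy3 intensity per cluster, averaged per switch-domain sequence, excluding clusters outside 100-1000 RFU.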
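Note: ATP exposure 15 min at 22 °C before imaging.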

Row | Sequence | switch fluorescence ratio
1 | GGACCGCGCT | 1.13
2 | GGAGGGAAGG | 1.01
3 | GGCGCGATTT | 1.1
4 | GTGTTGTAAT | 1.02
5 | GGTCCGTG | 0.943
6 | CTTGAACTTG | 1
7 | CGTCAGAACG | 1.03
8 | TAATTTCGAG | 1.01
9 | CCAAGGCTCA | 1.11
10 | CAACTGGCAA | 1.87
11 | AGCCAGC | 1.01
12 | GACGAATCTT | 0.975
13 | CGACGATCAA | 2.12
14 | AAGGCCGCGA | 1.28
15 | GATTTAGGTC | 1.02
16 | TATGCCGGTA | 1.02
17 | CGGCACGGGC | 0.983
18 | TGCCGAACGT | 1.05
19 | GGCCAGCTAT | 0.96
20 | CTGGTGATCT | 1.01
21 | TCACTCCATC | 1.06
22 | TGGGCCTGTA | 1.01
23 | CTTCAGTAGG | 1.04

Row | Sequence | switch fluorescence ratio
24 | AATCTGATTC | 1.01
25 | GGCGTGTGCA | 1.01
26 | TCGGATAACG | 1.04
27 | TGGGCGTACG | 0.987
28 | CTCCCTATAT | 3.7
29 | CCTTATGATA | 0.904
30 | CAACGGCACG | 1.01
31 | ACGGGATGGC | 1.06
32 | CGAAATTATA | 0.978
33 | TGTTTTTATG | 0.988
34 | TATGTAGAGG | 0.971
35 | ATCTATACGC | 1.02
36 | TGTCAGCCTT | 1.01
37 | AGAGTTTTA | 0.978
38 | GTGTCAGTCT | 1.07
39 | CATGGTTCCA | 1.02
40 | GTTGTATATA | 0.993
41 | ATTTATAAAA | 0.974
42 | ACTAGTTGAC | 1.04
43 | TTCTTTGTCG | 0.901
44 | CCGCGTTCGG | 1.1
45 | CGCTCATAAT | 1.03
46 | TCAAAAAAAG | 0.987

Row | Sequence | switch fluorescence ratio
47 | TGAATTCGCA | 1.16
48 | CATTAAAATC | 0.994
49 | CACATGTTC | 1.01
50 | CGCTTATGAA | 1.02
51 | CGAATCGTGG | 0.974
52 | TGGTCAAG | 0.982
53 | TAGGCATTGT | 1.01
54 | CTTAGAAAG | 1.05
55 | TATCTGTG | 0.992
56 | CCCTTGGGAC | 0.975
57 | TGACACACGT | 1.32
58 | AGAGAGTTG | 1.01
59 | GCACGAGAAC | 1.08
60 | CGTTCGAGCG | 1.01
61 | CGCTGTAAC | 1.58
62 | ACACCTACGG | 1.25
63 | TAGATTGAGA | 1
64 | ACACTAGCGT | 1.06
65 | CTTAGCCGGT | 0.995
66 | TAGCTTATTT | 1.03
67 | GTTAGAACAA | 0.976
68 | CGTCGGTTGG | 0.997
69 | TAAGATGCAT | 0.987

Row | Sequence | switch fluorescence ratio
70 | GATTGGCATA | 1.01
71 | TTGATGTCCG | 0.99
72 | GGTCGTGTCA | 0.984
73 | TAGACATTAT | 0.988
74 | ATCCTTGAGT | 1.01
75 | AATTTACCTA | 1.08
76 | TAAGGACCCC | 1.06
77 | ATTCAGAATC | 0.997
78 | CTGGGATGCA | 1.04
79 | TTTGCGTGGT | 1.04
80 | GTAATGACCC | 1.66
81 | CCCCGAGAAT | 1.09
82 | TTGAAAACGT | 1.04
83 | TGGTACACAG | 0.971
84 | CGGTCTTGGT | 1.01
85 | TTCGCGAAGG | 1.01
86 | TGGTCGGACG | 1.06
87 | CACTTGCTGA | 0.956
88 | CATGGCTCGC | 1.04
89 | AATGTCTCCG | 1.09
90 | CACCACTTTA | 1.04
91 | TCGGTGTGC | 0.989
92 | ACCTTGCATG | 1.02

Row | Sequence | switch fluorescence ratio
93 | ACGTGTGGAG | 1.07
94 | GTTGATAGGT | 0.942
95 | CTAGCAAGGT | 1.35
96 | TGAGTTGATG | 0.99
97 | CCGAATGTTA | 1.29
98 | TTGTGAATG | 0.985
99 | GTTTGATGT | 0.964
100 | GGTGCCACGA | 0.986
101 | CATATCGGGC | 1.04
102 | GCTCTGGGAA | 1.16
103 | ACGGGGGCAA | 1.57
104 | TATATTGAGA | 0.988
105 | AGATGAAAAC | 1.13
106 | GACGGAGTTT | 1.04
107 | CTAGCGCGCC | 0.987
108 | TCCCTGTCG | 1.01
109 | ATACTTACGG | 1.58
110 | AGGGTTCAGC | 0.991
111 | GCTAAAGAGA | 1.03
112 | CGTTTGAGCC | 0.992
113 | GGACCACTTT | 1.01
114 | ACGTAGGCGT | 1.03
115 | CCGAGACGAG | 1.01

Row | Sequence | switch fluorescence ratio
116 | TGGATGTTGC | 1.02
117 | AGATCGCGGC | 1.04
118 | TTTAATCCGG | 1.01
119 | TGGTTTTCCG | 0.992
120 | GCTGTCGGTC | 0.975
121 | AGGGAGAGA | 1
122 | GATAAAAGAC | 1.02
123 | TTAACATTAT | 1.01
124 | TATACTTGTG | 0.991
125 | CAAAGAGACA | 1.01
126 | CCTTCGGGCT | 1.24
127 | TCTTTGTCGT | 0.974
128 | CGACCTAGTT | 1.01
129 | TATACGCGTA | 0.979
130 | GAGCGGGCGG | 1.02
131 | TTGGCTCTGA | 0.999
132 | TAATTTCCGC | 1.15
133 | TTACGATTCT | 0.987
134 | CCTATAAATT | 0.998
135 | GGGAGCGATA | 1.08
136 | AGGGATTGGG | 1.03
137 | CGGTATGTTA | 0.998
138 | GACGAGCTAG | 1.01

Row | Sequence | switch fluorescence ratio
139 | TCGGGACTAA | 0.976
140 | AACGTTCCGC | 1.55
141 | AGTAACAAAG | 1.02
142 | GATATCGAAT | 1.02
143 | AATGGGGAGA | 1.05
144 | CGAATTGTAC | 1.07
145 | CTAATCCA | 1
146 | CATTGGAAGT | 0.979
147 | TTTCACGAGA | 1.07
148 | TCTGTGCCTC | 1.06
149 | GGCGACAGTT | 1
150 | AAGTGGGTTG | 0.968
151 | GAAGGCCAAC | 1.03
152 | GCCAACCCCA | 1.09
153 | AGTTTGTTGA | 1.02
154 | CATCTAGAGG | 1.01
155 | TGTATGTTAA | 1.01
156 | AGGGACTCTT | 1.01
157 | CAGGCTACGC | 1.01
